Results from ChEMBL document CHEMBL4888484, “Replenishing the malaria drug discovery pipeline: Screening and hit evaluation of the MMV Hit Generation Library 1 (HGL1) against asexual blood stage Plasmodium falciparum ,using a nano luciferase reporter read-out” (2022).
Screen size: about 150,000 compounds; about 540 (0.36%) showed an effect of 50% or more. The list shows a part of the results.

Test system: Plasmodium falciparum
Assay: Primary screen in NF54 nanoGlo assay, in single point, at 2uM, 72h; a lower Z score goes with more inhibition
Assay type: functional, Erythrocyte
Conditions: timepoint 72 hour

Point of comparison: COc1ccccc1C(=O)N1CCN(c2cc(N3CCN(C)CC3)nc(C)n2)CC1, “% Inhibition” value -13%. Against it:
- CCn1nc(C)c(C(=O)N2CCn3nc(CO)cc3C2)c1C — higher, 1%
- OCc1cc(C(F)(F)F)ccc1-c1cnc2c(c1)CC[C@@H]2O — higher, 3%
- O=C(N[C@H]1CCc2cc(F)c(F)c(F)c21)N1CCn2ncnc2C1 — higher, -5%
- O=C(NCc1ccccn1)c1csc(-c2ccco2)n1 — higher, -7%
- O=S(=O)(c1ccc2c(c1)CCC2)N1CC(n2cnnc2[C@@H]2CCCO2)C1 — higher, -9%
- CC(=O)N[C@H](C(=O)N(CC1CCN(CCc2ccccc2C)CC1)C1CCCC1)C(C)C — the same, -13%
- CC1C(Cc2ccccc2)CCN1C(=O)NC1CCN(C)C1=O (stereo not drawn) — higher, 1%
- Cn1cccc1CNC(=O)CCc1nc2c([nH]1)c(=O)[nH]c(=O)n2C — higher, -11%
- O=C(CCc1c[nH]c2ccccc12)Nc1cnn2c1NCCC2 — higher, -1%
- COc1cc(=O)n2c(c1C(=O)N(C)Cc1nonc1C)CCNCC2 — higher, -9%
- Cc1cc(O)ccc1C(=O)NC[C@H]1CCN(C2CCCC2)C1 — higher, -10%
- CN1CCCC2(CCN(C(=O)C3CCc4ccccc43)C2)C1 (stereo not drawn) — higher, 1%
- CCN1C[C@@H](NC(=O)Cc2c(C)n[nH]c2C)CC1=O — higher, -6%
- O=C(NC1CCCCC1)N1CC[C@H](c2nc(CCOCC3CC3)no2)C1 — higher, -2%
- O=C(Nc1nc2c(s1)CCCC2)c1ccc2c(c1)OCCO2 — higher, -6%
- CN1CCC(N2CCC[C@H](NC(=O)c3ccc(Cl)c(F)c3)C2)CC1 — higher, 6%
- NC(=O)c1csc(CNC(=O)N2CCC[C@H]2C(F)F)n1 — higher, 11%
- O=C(N[C@H]1CC[C@H](CO)CC1)c1cc(F)cc(Br)c1 — higher, 2%
- Cn1ncc(C2CCC2)c1C(=O)N1CCN(C2CC2)c2cc(Cl)ccc21 — higher, 2%
- CCn1ncc(CN[C@@H](C)c2ccnc(OC)c2)n1 — higher, -3%
- COc1ccc(-n2c(C)nn(Cc3ccccc3)c2=O)cc1 — higher, 38%
- COc1ccccc1C(C)NC(=O)C1CCc2[nH]ncc2C1 (stereo not drawn) — the same, -13%
- Cc1c(C(=O)NCc2ccco2)cnn1-c1ncccc1-c1nc(C2CC2)no1 — higher, -9%

Point of comparison: Cn1cccc1CNC(=O)CCc1nc2c([nH]1)c(=O)[nH]c(=O)n2C, Z score 1.18. Against it:
- CCn1nc(C)c(C(=O)N2CCn3nc(CO)cc3C2)c1C — lower, -0.11
- OCc1cc(C(F)(F)F)ccc1-c1cnc2c(c1)CC[C@@H]2O — lower, -0.41
- O=C(N[C@H]1CCc2cc(F)c(F)c(F)c21)N1CCn2ncnc2C1 — lower, 1.12
- O=C(NCc1ccccn1)c1csc(-c2ccco2)n1 — lower, 1.1
- O=S(=O)(c1ccc2c(c1)CCC2)N1CC(n2cnnc2[C@@H]2CCCO2)C1 — higher, 1.49
- CC(=O)N[C@H](C(=O)N(CC1CCN(CCc2ccccc2C)CC1)C1CCCC1)C(C)C — higher, 1.63
- CC1C(Cc2ccccc2)CCN1C(=O)NC1CCN(C)C1=O (stereo not drawn) — lower, -0.15
- O=C(CCc1c[nH]c2ccccc12)Nc1cnn2c1NCCC2 — lower, 0.12
- COc1cc(=O)n2c(c1C(=O)N(C)Cc1nonc1C)CCNCC2 — higher, 1.26
- Cc1cc(O)ccc1C(=O)NC[C@H]1CCN(C2CCCC2)C1 — higher, 1.67
- CN1CCCC2(CCN(C(=O)C3CCc4ccccc43)C2)C1 (stereo not drawn) — lower, -0.1
- CCN1C[C@@H](NC(=O)Cc2c(C)n[nH]c2C)CC1=O — lower, 0.83
- O=C(NC1CCCCC1)N1CC[C@H](c2nc(CCOCC3CC3)no2)C1 — lower, 0.26
- COc1ccccc1C(=O)N1CCN(c2cc(N3CCN(C)CC3)nc(C)n2)CC1 — higher, 1.51
- O=C(Nc1nc2c(s1)CCCC2)c1ccc2c(c1)OCCO2 — lower, 0.6
- CN1CCC(N2CCC[C@H](NC(=O)c3ccc(Cl)c(F)c3)C2)CC1 — lower, -0.74
- NC(=O)c1csc(CNC(=O)N2CCC[C@H]2C(F)F)n1 — lower, -2.12
- O=C(N[C@H]1CC[C@H](CO)CC1)c1cc(F)cc(Br)c1 — lower, -0.2
- Cn1ncc(C2CCC2)c1C(=O)N1CCN(C2CC2)c2cc(Cl)ccc21 — lower, -0.23
- CCn1ncc(CN[C@@H](C)c2ccnc(OC)c2)n1 — lower, 0.46
- COc1ccc(-n2c(C)nn(Cc3ccccc3)c2=O)cc1 — lower, -4.9
- COc1ccccc1C(C)NC(=O)C1CCc2[nH]ncc2C1 (stereo not drawn) — higher, 1.3
- Cc1c(C(=O)NCc2ccco2)cnn1-c1ncccc1-c1nc(C2CC2)no1 — higher, 1.39
